For the assay, the target named is T1, M1/M4 W108A γ 12.1 StaR (Homo sapiens, UniProt P08173+P11229, A143L/A196T/A364L/F34A/K362A/L71A/S112A/S411A/T39A/T95A/V53L/W101A).
T1 construct: residues 1-95 of M4 fused to residues 88-438 of M1-receptor; residues 1-95 of the human M4-receptor (CHRM4, P08173) in place of M1 residues 1-87; expressed in transfected cells; host or cells: HEK293T (48 h transient transfection), membranes
T1 sequence (P08173 1-95 F34A/T39A/V53L/L71A limits assumed): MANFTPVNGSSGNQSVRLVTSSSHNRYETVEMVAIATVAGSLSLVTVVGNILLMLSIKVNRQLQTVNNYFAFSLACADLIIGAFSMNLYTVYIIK
T1 sequence (P11229 88-438 T95A/W101A/S112A/A143L/A196T/K362A/A364L/S411A limits assumed): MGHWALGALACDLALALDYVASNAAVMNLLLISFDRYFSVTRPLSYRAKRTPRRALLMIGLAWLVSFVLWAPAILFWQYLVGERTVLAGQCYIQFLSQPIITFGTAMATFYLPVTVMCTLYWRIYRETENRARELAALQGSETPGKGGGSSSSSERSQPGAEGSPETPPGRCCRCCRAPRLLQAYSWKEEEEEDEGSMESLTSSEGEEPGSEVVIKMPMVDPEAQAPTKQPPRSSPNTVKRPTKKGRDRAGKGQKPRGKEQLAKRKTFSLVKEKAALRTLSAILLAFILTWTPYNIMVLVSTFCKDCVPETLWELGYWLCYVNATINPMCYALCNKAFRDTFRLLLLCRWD
As to the kind of experiment: StaR radioligand saturation binding in HEK293T membranes. The settings on record: HEK293T cell membranes, n = 3. The method, then: All experiments were performed in 96 well format over 2 h at room temperature using 5ug/well protein in a final volume of 400ul of assay buffer of the following composition: 20 mM HEPES, 100 mM NaCl and 10 mM MgCl2, pH 7.4 Binding reactions were terminated by rapid filtration through GF/B filters (Perkin Elmer, Boston, MA, USA) pre-soaked with 0.5% w/v PEI for 1 h. Filters were then washed 3 times with 1 mL ice-cold assay buffer. Dried filters were counted with UltimaGold scintillant (Perkin Elmer) using a Microbeta (Perkin Elmer, Boston, MA, USA). The specific bound counts (d.p.m.) were expressed as a percentage of the maximal binding observed in the absence of test compound (total) and non-specific binding determined in the presence of 10 μM atropine.
Affinity (KD) for [^3H] 77-LH-28-1 for each construct was determined in membranes by saturation binding assays, performed by incubating increasing concentrations of [^3H] 77-LH-28-1 in the absence or presence of 10μM atropine. Radioligand inhibition binding assays were performed by co-incubating membranes with increasing concentrations of test compounds and an approximate 5x concentration of the equilibrium dissociation constant (KD) concentration of [^3H]
Data was analyzed using PRISM (GraphPad). For saturation binding, non-specific and total binding data were analyzed to a one site binding model. […]

One may read the Kd as the concentration at which binding is half-saturated. High values mean weaker binding, low ones tighter binding. For the molecule `CCCCC1CCN(CCCN2C(=O)CCc3ccccc32)CC1` [Compound 77-LH-28-1], the dissociation constant (Kd) was 0.06 ± 0.03 nM.

The values above are taken from PMC7616177, “From structure to clinic: Design of a muscarinic M1 receptor agonist with the potential to treat Alzheimer’s disease” (Cell, 2021).
